Results: the supplement of paper PMC11417369
This is one part of the list.

Each sequence was assayed on PF3D7_0420300 AP2 domain 1 (GST-tagged) (assay: gcPBM binding intensity (ln(normalized median fluorescence intensity)); higher = stronger DNA binding).
Procedure, shortened: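 After 1 h on an Agilent 4 × 180k array of primer-extended double-stranded 36-bp intergenic genomic probes and negative controls, bound GST-tagged P. falciparum DNA-binding domains were detected with Alexa488 anti-GST antibody and scanned at 488 nm. The domains had been expressed in E. coli, and binding took place in 1× PBS with 1% milk, 0.2 mg/ml BSA, 0.5% salmon testes DNA and 0.03% Triton X-100. Binding intensity is the highest Masliner-normalised natural-log median intensity across replicate spots of either probe orientation.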

| Sequence | gcPBM binding intensity (ln) |
| --- | --- |
| AATGCACAGCTCTTAGGCAAAAGTGGGTATTTACAC [GTGCAC_negctrl_site579] | 9.17 |
| ACAATTCATTAGAATTGTACAAAAGGATGAAGCGAA [XGTACX_site5242] | 9.4 |
| ATTTAATACAAATACACACACAAATATGTACCTATA [CACACA_site7718] | 9.86 |
| ATTTTTTTTTTTTAATTTGATATTTGCGTTTATATA [CACACA_negctrl_site1305] | 9.36 |
| TATATACATACATATACACACATATATATATATATA [CACACA_site401] | 9.44 |
| TCATTGTTTAATATGTGTCCTCAAAATTTGTTATAT [XGTACX_site677] | 9.41 |
| GTATAAAATATTGATTGTACTTTATTCATTTTTTTT [XGTACX_site2520] | 9.25 |
| TCATATTCCAAGTGTACACATAAATCCCTAATAACA [CACACA_site5167] | 9.34 |
| TCTTGTTAATATATTAAATATATCTATAAATATATA [XGTACX_negctrl_site486] | 9.15 |
| AAAAATAAAACAATTACACACATAACTTTATTTTTA [CACACA_site6563] | 9.58 |
| AAAAGCTTAAAAAATTGTACATAAATGAATAAATAT [XGTACX_site5201] | 9.18 |
| TAAACCTATTATACGGGTACTTATTTGATTCTTATA [XGTACX_site5292] | 9.19 |
| ACAAATGGAACTCCTACAAAAAATTTCCATAATATT [XGTACX_negctrl_site132] | 9.16 |
| ACCACCATATAACATACATGCATCTTTTTTCCCTTC [TGCATGCA_site583] | 9.79 |
| GAACTCATTTAATATTGTACATTCTGATATTTTTTA [XGTACX_site5995] | 9.45 |
| TTTTATATAAATATCACACACACACGCATGTTTTAA [CACACA_site6187] | 9.91 |
| TACAATATACCTACTTGTACACAAAATAAAAGTAGT [XGTACX_site6029] | 9.43 |
| TACACACCTAACTATGCATGCATCAATATAGTGGAT [TGCATGCA_site443] | 9.27 |
| TATTCATGCATATACACACACATATATATATATTTT [CACACA_site3955] | 9.85 |
| AAAAAAAAATTAAACATACACACGTTACTATTTTTA [CACACA_site1687] | 9.31 |
| AATGAAAAATTGTAATGTACATAAATAAATAAATAA [XGTACX_site4048] | 9.26 |
| ATCATAATTTATTATACACACAATACGTGACCTATT [CACACA_site6977] | 9.67 |

| Sequence | gcPBM binding intensity (ln) |
| --- | --- |
| TATATGTGATAACACGCACACAAATGTATATAATTT [CACACA_site2593] | 9.45 |
| AAAAAAAAAAAACATACACACATTGAACTTTTATAT [CACACA_site3250] | 9.66 |
| ATAAAATAAAAATTCTGTACAGAATTAAAAAAATAT [XGTACX_site6961] | 9.34 |
| AAAAAAAGTAAAAAGTGTACTTAATATATATATATA [XGTACX_site838] | 9.19 |
| TGTAGCATTTAATTCACACATAAAAAATGTATCCAT [CACACA_site4986] | 9.1 |
| TTAAAATGAAGAAGTGCACACATATATATATTTATA [CACACA_site8063] | 9.37 |
| TTAACACATTTTATGTGTACTCATATGATTTAAAAT [XGTACX_site7516] | 9.11 |
| CTAATAAAAAAAAAAAGTACATATGACAATATAAAG [XGTACX_site1598] | 9.51 |
| AATTTTTTTTTCTTTTGTACGTAAATATGTGTAGGC [XGTACX_site215] | 9.12 |
| TATAAACAGACGAAAACACACATATGTAGATATATA [CACACA_site6371] | 9.74 |
| TATATATTAGTGTTGACACACACAAAAAAAAAAAAA [CACACA_site8392] | 9.32 |
| ATCAGGCAAAATTTTTGTACATATATATTTTATTTT [XGTACX_site1245] | 9.47 |
| TTATAAATGTGCGTAGTGCATAAACAAAAAAAAAAT | 9.6 |
| ATTTTTTTTTTTTTTTTTTTTTTTTATGAATGTTAT [CACACA_negctrl_site1319] | 9.06 |
| ATTTTTTTTTTTTTTTTTTTTTTTTTTTTTTTTTTT [CACACA_negctrl_site1364] | 9.52 |
| TACACCCAGAAATGCACACACATATATATATATATA [CACACA_site5289] | 9.7 |
| ATGAACATGTGACAATGTACATTTATATCTTAAGAA [XGTACX_site4960] | 9.06 |
| ATAATATATATATATATGTATGTATATATGTATGTA [GTGCAC_negctrl_site575] | 9.24 |
| TATTCTTATTATTACACACACAATTATATTTACCCC [CACACA_site6381] | 9.84 |
| TATATATATATAATAGCATGCTATATTATATATATA [TGCATGCA_site886] | 8.99 |
| TATTTTTTAATTGTTTCACACATTATTTTTTACATA [CACACA_site6078] | 9.38 |
| TTAACATAAATTGTGTCATTTTTTTTTTTTTTTTTA [CACACA_negctrl_site1221] | 8.96 |

| Sequence | gcPBM binding intensity (ln) |
| --- | --- |
| TTACTTGTTTATTTTTTTTTTTTTTTTTTTTTTGTT [TGCATGCA_negctrl_site103] | 9.11 |
| TAATGGAGAAAATAATGTACTTAGATATTTGTTCTA [XGTACX_site6312] | 9.1 |
| AAGAACAAACAAAATAGTACAATATATATATATATA [XGTACX_site4258] | 9.64 |
| TTTAAATATTTTATAGCATGCTACCAATATGTATAT [TGCATGCA_site291] | 9.15 |
| CATATATAGATATATACACACATATAGATTTTCTTT [CACACA_site6797] | 9.47 |
| AACTATAATTAAAGGATGCACTTGAAGGCATTTCAA [GTGCAC_site9689] | 9.17 |
| TATTCATAACAATGATGTACATATATTTTTTTTTTC [XGTACX_site5619] | 9.14 |
| TATAAAATACTGTATCGATGGGGGAGGGCGCAGGGG [TGCATGCA_negctrl_site250] | 11 |
| AAAAAAAAAAAAAAAAAAAAAAAAAAAGATTATGAG [CACACA_negctrl_site1088] | 9.14 |
| TCAAATGTATATAATTGTACTTATCCTTTTCATTTT [XGTACX_site4879] | 9.32 |
| AAAAATTAGAAACACACACACATATATATATATATT [CACACA_site1042] | 10 |
| TTTTAAGTTTTTGAATGTACGTAATTTGTAAATTCT [XGTACX_site2448] | 9.16 |
| ATATATATATTTAAGGTGCGATTTTGTTATATTTAA | 9.42 |
| TTTTTATTAGGACATGCATACAAAATTAAAAAAAAT [TGCATGCA_site258] | 9.13 |
| GTATATAATTTATGTGCACACACTCCTATTTTTAGC [CACACA_site49] | 9.6 |
| AATTATATTAATATATAATAAAATAGGATGTTATTT [XGTACX_negctrl_site309] | 9.14 |
| TTATTAAAATATTAAAGTACAAAAAAAATAAATAAA [XGTACX_site6507] | 9.24 |
| TTATGTATATTATAAATTAATACATTTAAATTAATA [CACACA_negctrl_site34] | 8.82 |
| CTTATTTTATGTTATACACACAAAGAAAAAAAATAA [CACACA_site2165] | 9.32 |
| TATTAATTTATTTGTTGTACGTAAATATGCTTGTTT [XGTACX_site6591] | 9.47 |
| AAAAAAAAAAAAAATTGTACCCAAATATTTTTGTAG [XGTACX_site8303] | 8.94 |
| CGTTTGGTACACGTAGTGTTTTCGTTTGAATGTACC [GTGCAC_negctrl_site201] | 9.39 |

| Sequence | gcPBM binding intensity (ln) |
| --- | --- |
| TTTAATTTTCCCTTCACACATAATATATATCTGTAT [CACACA_site5370] | 9.4 |
| TTTAATCAATGATTTAATGAAAAAAGCAAAAAAAAA [GTGCAC_negctrl_site213] | 9.05 |
| GACATATATAGCAATCGTACATATATTATAAAAGGT [XGTACX_site6891] | 9.5 |
| AAAAGGAACAGACACACACACATATATAAATATGTA [CACACA_site7656] | 9.97 |
| TTTTTTTATATTATACGCACTAATATATATATATAT [XGTACX_negctrl_site40] | 9.31 |
| AAATAGACATAAAAAGGTACACAAATTGTGTATTAA [XGTACX_site527] | 9.46 |
| TAACACTTTTTTTTTCGTACATATATTATATATATA [XGTACX_site5470] | 9.4 |
| TAATAAGAAATAACAGGTACACATATATAAATATTA [XGTACX_site2976] | 9.57 |
| ATATGTAGATGATATTATTACTTTTCAAAAATTCAA [CACACA_negctrl_site933] | 8.97 |
| AAGTATAAAAAAAGGCGTACAAAAAAAAAAAAAAAA [XGTACX_site7309] | 8.92 |
| TTTTTCATTAATACAAGTACAAAATGATGTTGACAT [XGTACX_site1475] | 9.06 |
| TTTTTGTAAAAACACACACACAAACAGAAAAAATAA [CACACA_site2076] | 9.93 |
| TGTGCCCAAAATTATGCACACACCTAAAATTAATTT [CACACA_site2914] | 9.42 |
| ATGGTAGTTCTCCATGCATGCCTTTTTATTATCATA [TGCATGCA_site681] | 9.56 |
| TTTTATCTTTTTTTATTTTAATGTATTATTTTTATG [XGTACX_negctrl_site24] | 9.32 |
| ACTATTTAGTCTGGTGGTACTTTATATATAATTTCT [XGTACX_site5618] | 9.7 |
| ATATGTGTATGTGCGTGTACATATCTATACAGTTGT [XGTACX_site6540] | 9.59 |
| ATTATCATAATGTTCACACATATGGTATATATAGAT [CACACA_site6113] | 9.28 |
| TGAGCATAAAAAGGGTGTACTTAAATATATTATATA [XGTACX_site7556] | 9.15 |
| GAATATAATCTGTATTGTACGAAAGTTGAACACTTG [XGTACX_site8895] | 9.16 |
| TTGTATTATTATGTTGCACACATTTTATATAAAATA [CACACA_site3641] | 9.56 |
| TTTAGATAATTCATTACACACATGTATTTATATATA [CACACA_site5847] | 9.52 |
